# Experimental data reported in PubChem BioAssay (NCATS).
# Inconclusive means that the source gave no clear call. Such entries were picked first, then a sample of the others. For part of these data: Potencies beside an inconclusive call are fits to weak or partial responses and may not hold up. The source made the active and inactive calls. Unless noted, calls follow the shape of the dose curve; as a rule, active = well fitted curve in the direction sought with a large enough effect; inconclusive = small, poorly fitted or top-dose-only effect, or another doubt; inactive = no such curve, though single readings can be large; an effect the other way counts as inactive or inconclusive.
# Columns and labels:
# [1] = Primary qHTS for inhibitors of nuclear receptor binding SET domain protein 2 (NSD2) in an isogenic RCH-ACV NSD2 p.E1099K mutant (9B) (AID 1645876); also: nearly all actives have a fitted effect of over 70% in size; also: potency is read from the fitted curve at half-maximal effect
# [2] = Primary fluorescence-based thiol-reactive (MSTI) qHTS assay for identification of artifact compounds. (AID 1845221); also: potency is read from the fitted curve at half-maximal effect;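 also: thiol-reactive compounds lower the probe fluorescence signal; nearly all actives have a fitted effect of over 65% in size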
# How it was run: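 Thiol-reactive compounds detected by quenching of 4 uM MSTI fluorescence (525/598 nm) after 1 h room-temperature dark incubation in PBS pH 7.4, 2% DMSO. qHTS titration; percent inhibition Hill-fitted against Acetyl-MSTI/MSTI controls.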
# [3] = Primary redox qHTS assay for identification of artifact compounds. (AID 1845223); conditions: Amplex Red/HRP redox cycling with DTT, fluorescence; redox activity (% of DA3003): at 53.8 µM (top of the series);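 also: 0% = DMSO and 100% = reference compound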
# How it was run: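 Amplex Red (25 uM) and HRP (250 mU/mL) in HBSS, with compounds for 15 min, then 250 uM DTT for 30 min, room temperature, dark. Fluorescence 525/598 nm read; normalized to DMSO and 10 uM DA3003; Hill fit.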
# NIH3T3 = assay: Cytotoxic Profiling of Annotated Libraries Using Quantitative High-Throughput Screening (AID 1296008); conditions: Five cell lines viability, CellTiter-Glo ATP luminescence, 48-72 h; max response: hits give low values; also: nearly all actives have a fitted effect of over 60% in size; also: potency is read from the fitted curve at half-maximal effect; as to max response: % is scaled to controls: 0 for no effect and ±100 for the full control effect
# How it was run: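 Compounds were pin-transferred onto cells and incubated 48 or 72 hr at 37 degree Celsius, 95% humidity. CellTiter-Glo was added, plates sat 10 min at room temperature, then ATP-coupled luminescence was imaged as the viability read-out.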
# CASKI = assay: Primary qHTS to identify gynecologic anti-cancer compounds using libraries of approved drugs and bioactive compounds (AID 1345084); conditions: Gynecologic cancer cell panel viability, ATPlite luminescence, 48 h; series mostly up to 57.5 µM; also: nearly all actives have a fitted effect of over 55% in size; also: potency is read from the fitted curve at half-maximal effect; as to activity change, negative = cytotoxicity: % is scaled to controls: 0 for no effect and ±100 for the full control effect
# How it was run: (§1)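 Five-point cytotoxicity, 48 h drug exposure at 37 C, 5% CO2, on cells seeded 16 h beforehand. ATP content read by ATPlite luminescence.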
# Hek293T = assay: as above; conditions: Gynecologic cancer cell panel viability, ATPlite luminescence, 48 h, control line for the selectivity index; activity change, negative = cytotoxicity: at 57.5 µM (top of the series) unless noted
# How it was run: as §1
# SKOV3 = assay: as above; conditions: Gynecologic cancer cell panel viability, ATPlite luminescence, 48 h; series mostly up to 57.5 µM
# How it was run: as §1
# [4] = tested on: Zika virus NS2B-NS3 protease (unlinked complex); assay: Primary screen GU Rhodamine qHTS for Zika virus inhibitors: Unlinked NS2B-NS3 protease assay (AID 1347159); also: potency is read from the fitted curve at half-maximal effect; nearly all actives have a fitted effect of over 60% in size
# How it was run: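 Noncovalent NS2B hydrophilic domain/NS3 protease complex (25 nM final) in 10 mM Tris-HCl pH 8.0, 0.01% Tween 20, preincubated 15 min with compounds (up to 114 microM), then 1.5 microM Rhodamine110 substrate. Fluorescence change over 15 min fitted to 4-parameter Hill.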
# Tov-21-G = assay: Primary qHTS to identify gynecologic anti-cancer compounds using libraries of approved drugs and bioactive compounds (AID 1345084); conditions: Gynecologic cancer cell panel viability, ATPlite luminescence, 48 h; activity change, negative = cytotoxicity: at 57.5 µM (top of the series) unless noted; also: nearly all actives have a fitted effect of over 55% in size; also: potency is read from the fitted curve at half-maximal effect; as to activity change, negative = cytotoxicity: % is scaled to controls: 0 for no effect and ±100 for the full control effect
# How it was run: as §1
# [5] = Primary qHTS for inhibitors of nuclear receptor binding SET domain protein 2 (NSD2) in an RCH-ACV wild type WT cells (2C) (AID 1645877); conditions: activity change, negative = cell killing: at 44.9 µM (top of the series) unless noted; also: nearly all actives have a fitted effect of over 70% in size; also: potency is read from the fitted curve at half-maximal effect
# CAOV3 = assay: Primary qHTS to identify gynecologic anti-cancer compounds using libraries of approved drugs and bioactive compounds (AID 1345084); conditions: Gynecologic cancer cell panel viability, ATPlite luminescence, 48 h; activity change, negative = cytotoxicity: at 57.5 µM (top of the series); also: nearly all actives have a fitted effect of over 55% in size; also: potency is read from the fitted curve at half-maximal effect; as to activity change, negative = cytotoxicity: % is scaled to controls: 0 for no effect and ±100 for the full control effect
# How it was run: as §1
# [6] = P-glycoprotein substrates identified in KB-8-5-11 adenocarcinoma cell line, qHTS therapeutic library screen (AID 1346987); also: nearly all actives have a fitted effect of over 65% in size; also: potency is read from the fitted curve at half-maximal effect
# How it was run: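 KB-8-5-11: colchicine-selected sub-line of KB-3-1 over-expressing P-gp; assay medium lacked colchicine. 72 h drug exposure at 37 degree C, CellTiter-Glo.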
# [7] = Primary qHTS for small molecule stabilizers of the endoplasmic reticulum resident proteome: Secreted ER Calcium Modulated Protein (SERCaMP) assay (AID 1508630); conditions: SH-SY5Y GLuc-SERCaMP (Gaussia luciferase released on ER calcium loss) secretion, thapsigargin, luminescence; activity change, negative = inhibition: at 38.4 µM (top of the series) unless noted; also: potency is read from the fitted curve at half-maximal effect
# How it was run: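 GLuc-SERCaMP-expressing SH-SY5Y cells, pretreated 16 h with compound, are challenged with thapsigargin to empty ER calcium stores; after 4 h, coelenterazine is added directly to the medium and luminescence is imaged.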
# HeLa = assay: Primary qHTS to identify gynecologic anti-cancer compounds using libraries of approved drugs and bioactive compounds (AID 1345084); conditions: Gynecologic cancer cell panel viability, ATPlite luminescence, 48 h; activity change, negative = cytotoxicity: at 57.5 µM (top of the series); also: nearly all actives have a fitted effect of over 55% in size; also: potency is read from the fitted curve at half-maximal effect
# How it was run: as §1
# Tov112D = assay: as above; conditions: Gynecologic cancer cell panel viability, ATPlite luminescence, 48 h; series mostly up to 57.5 µM
# How it was run: as §1
# Es-2 = assay: as above; conditions: Gynecologic cancer cell panel viability, ATPlite luminescence, 48 h; series mostly up to 57.5 µM
# How it was run: as §1
# [8] = target: Cytochrome P450 2D6 (Homo sapiens) (UniProt P10635); assay: Cytochrome P450 family 2 subfamily D member 6 (CYP2D6) small molecule antagonists: luciferase biochemical (cell-free) qHTS assay (AID 1645840; active = well fitted curve in the direction sought with a large enough effect in the repeat runs; inconclusive = weak or mixed curves; inactive = no such curve, though single readings can be large; an effect the other way counts as inactive or inconclusive)
# UniProt P10635, sequence (P10635 whole entry, looked up): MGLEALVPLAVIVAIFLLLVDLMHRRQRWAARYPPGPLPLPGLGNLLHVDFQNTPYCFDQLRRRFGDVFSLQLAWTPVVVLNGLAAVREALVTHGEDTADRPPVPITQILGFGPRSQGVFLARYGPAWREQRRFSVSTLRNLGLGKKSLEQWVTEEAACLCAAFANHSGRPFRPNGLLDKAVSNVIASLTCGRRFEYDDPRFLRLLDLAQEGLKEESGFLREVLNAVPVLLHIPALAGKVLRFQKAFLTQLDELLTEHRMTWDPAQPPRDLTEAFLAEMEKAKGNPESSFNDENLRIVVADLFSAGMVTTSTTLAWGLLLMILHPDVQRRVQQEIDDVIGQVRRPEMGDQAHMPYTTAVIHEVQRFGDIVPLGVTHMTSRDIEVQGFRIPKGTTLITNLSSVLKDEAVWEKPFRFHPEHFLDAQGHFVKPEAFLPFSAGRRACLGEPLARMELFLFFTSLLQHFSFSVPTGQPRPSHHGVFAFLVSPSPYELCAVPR
# How it was run: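 P450-Glo luminescent screen: recombinant CYP2D6 enzyme–proluciferin substrate mix preincubated with compound 10 min at room temperature, then NADPH regeneration added for 1 h at room temperature. Detection reagent added for 20 min; luciferin light read as relative luminescence units.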
# PA-1 = assay: Primary qHTS to identify gynecologic anti-cancer compounds using libraries of approved drugs and bioactive compounds (AID 1345084); conditions: Gynecologic cancer cell panel viability, ATPlite luminescence, 48 h; series mostly up to 57.5 µM; also: nearly all actives have a fitted effect of over 55% in size; also: potency is read from the fitted curve at half-maximal effect
# How it was run: as §1
# Tags tell the direction and shape of the fitted curve.
smiles,measurement,setting,value
OCCc1ccc(O[C@@H]2O[C@H](CO)[C@@H](O)[C@H](O)[C@H]2O)cc1,Potency,[1],inactive
same,Potency,[2],inactive
same,Potency,[3],inactive
same,max response,NIH3T3,inactive: 2.39%
same,Potency,CASKI,inactive
same,Potency,Hek293T,inactive
same,Potency,SKOV3,"inconclusive: 0.316 µM [rising, partial curve, poor fit]"
CC1(C)CC2=C3C=CC4C5(C)CCC(O)C(C)(C)C5CCC4(C)C3(C)CCC2(C)C(O)C1 (stereo unspecified),Potency,[4],active: 15.8 µM
same,Potency,[2],active: 11.6 µM
same,max response,NIH3T3,inactive: -2.26%
same,Potency,CASKI,inactive
COC(=O)Cc1cc2c(c([N+](=O)[O-])c1)N(C(=O)CC[C@H](N)C(=O)O)CC2,Potency,[2],"inconclusive: 29.9 µM [inhibitor, partial curve]"
same,Potency,NIH3T3,"inconclusive: 25.9 µM [inhibitor, single point]"
same,Potency,CASKI,"inconclusive: 39.8 µM [cytotoxic, single point]"
same,Potency,Tov-21-G,inactive
COc1cc(/C=C/C(=O)O[C@H]2C[C@@H]3C(C(=O)O)=CO[C@@H](O[C@@H]4O[C@H](CO)[C@@H](O)[C@H](O)[C@H]4O)[C@@H]3[C@H]2C)ccc1O,Potency,[5],inactive
same,Potency,[2],"inconclusive: 9.22 µM [inhibitor, partial curve]"
same,max response,NIH3T3,inactive: 1.34%
same,Potency,CAOV3,"inconclusive: 7.94 µM [cytotoxic, single point]"
same,Potency,Tov-21-G,inactive
COc1ccc2cc1Oc1cc3c(cc1OC)CC[N+](C)(C)[C@H]3Cc1ccc(cc1)Oc1c(OC)c(OC)cc3c1[C@@H](C2)[N+](C)(C)CC3,Potency,[6],inactive
same,Potency,[7],"inconclusive: 2 µM [inhibitor, full curve]"
same,Potency,[1],inactive
same,outcome,NIH3T3,inactive
same,Potency,HeLa,inactive
same,Potency,Tov112D,inactive
O=C(C1CCCCC1)N(CCN1CCN(c2ccccc2O)CC1)c1ccccn1,Potency,[1],"inconclusive: 16.3 µM [inhibitor, partial curve, poor fit]"
same,Potency,[5],"inconclusive: 23 µM [inhibitor, partial curve, poor fit]"
same,Potency,NIH3T3,"inconclusive: 29.1 µM [inhibitor, single point]"
same,Potency,CASKI,"inconclusive: 4.47 µM [cytotoxic, single point]"
CC1CC2OCC3(O)CCC(O)C(C14CC(c1ccoc1)OC4=O)C23CO (stereo unspecified),Potency,[4],"inconclusive: 7.08 µM [inhibitor, full curve]"
same,Potency,[1],inactive
same,Potency,[2],active: 3.29 µM
same,outcome,NIH3T3,inactive
same,Potency,Es-2,inactive
CCOC(=O)c1sc(NC(=O)[C@H](C(C)C)n2c(=O)[nH]c3ccccc3c2=O)nc1C,Potency,[8],"inconclusive: 16.9 µM [inhibitor, partial curve]"
same,Potency,[1],"inconclusive: 16.3 µM [inhibitor, single point]"
same,Potency,[5],"inconclusive: 18.3 µM [inhibitor, partial curve]"
same,Potency,NIH3T3,"inconclusive: 29.1 µM [inhibitor, single point]"
same,Potency,CASKI,inactive
N#Cc1ccc(C2CCCc3cncn32)cc1 (stereo unspecified),Potency,[1],inactive
same,Potency,[5],inactive
same,outcome,NIH3T3,inactive
same,Potency,Es-2,inconclusive: 0.501 µM
same,Potency,HeLa,inconclusive: 0.447 µM
same,Potency,PA-1,inconclusive: 0.0316 µM
same,Potency,Tov-21-G,inconclusive: 39.8 µM
same,Potency,Tov112D,inconclusive: 31.6 µM
CCCCNC(=O)[C@@H]1Cc2ccccc2N1C(=O)[C@@H](N)CC,Potency,[6],inactive
same,max response,NIH3T3,inactive: 3.92%
same,Potency,Es-2,inactive
same,Potency,Hek293T,"inconclusive: 39.8 µM [rising, partial curve, poor fit]"
FC(F)(F)c1cc(-c2ncn(/C=C\c3nnco3)n2)cc(C(F)(F)F)c1,Potency,[6],"inconclusive: 2.91 µM [inhibitor, full curve]"
same,Potency,[5],"inconclusive: 1.83 µM [inhibitor, full curve]"
same,Potency,[3],inactive
same,Potency,NIH3T3,"inconclusive: 3.66 µM [inhibitor, full curve]"
same,Potency,Es-2,active: 3.16 µM
same,Potency,Hek293T,"inconclusive: 3.55 µM [cytotoxic, single point]"
same,Potency,PA-1,"inconclusive: 8.91 µM [cytotoxic, single point]"
COc1ccccc1NC(=O)OCC1CCN(C(=O)OC(C)(C)C)CC1,Potency,[6],inactive
same,Potency,[8],"inconclusive: 23.9 µM [inhibitor, single point]"
same,Potency,[1],inactive
same,Potency,[5],inactive
same,Potency,NIH3T3,"inconclusive: 5.8 µM [inhibitor, single point]"
same,Potency,Es-2,inactive
same,Potency,HeLa,inactive
